According to the RNAGym collection of RNA variant scans (doi:10.7554/elife.90254):
The source gives no read counts; variants with many changes may rest on few reads.

B1: OR4K15 (parent)
chain: GUUAACGGUCAUAGGCCAUGGAAACUAGGAGCACCAUUUCGCUGCCAGUGAAGAAAUGAACAAAGAAAAUCUGGGCCAGGCAGGCAUCAAAAGAAAUAGUCUUGCGCUCAACCAGAAAGUCUGUAAUCAUUUUAAGGGUA

Variants of: B1
Assay: self-cleavage, relative activity (ratio to wild type); higher = more cleavage; in vitro, sequencing; the parent is a self-cleaving ribozyme

Q: Which self-cleavage does the source give for GUUAACGGUCAUAGGCCAUGGAAACUAGGAGCACCACUUCGCUGCCAGUGUAGAAAUGAACAAAGAAAAUCUGGGCCAGGCAGGCAUCAAAAGAAAUAGUCUUGCGCUCAACCAGAAAGUCUGCAAUCAUUUUAAGGGUA [U37C A51U U124C] here?
A: 1.11

Q: With GUUAACGGUCAUAGGCCAUGGAAACUAGGAGCACCAUUACGCUGCCAGUGAAGAAAUGAGCAAAGAAAAUCUGGGCCAGGCAGGCAUCAAAAGAAGUAGUCUUGCGCUCAACCAAAAAGUCUGUAAUCAUUUUAAGGGUA [U39A A60G A96G G115A] as the variant, how does the self-cleavage read?
A: 0.02

Q: With GUUAACGGUCAUAGACCAUGGAAACUAGGAGCACCAUCUCGCUGCCAGUGAAGAAAUGAACAAAGAAAGUCUGGGCCAGGCAGGCAUCAAAAGAAAUAGUCUUGCGCUCAACCAGAAAGUCUGUAAUCAUUUUAAGGGUA [G15A U38C A69G] as the variant, how does the self-cleavage read?
A: 1.54

Q: With GUUAACGGCCAUAGGCCAUGGAAACUAGGAGCACCAUUCCGCUGCCAGUGAAGAGAUGAACAAAGAAAAUCUGGGCCAGGCAGGCUUCAAAAGAAAUAGUCUUGCGCUCAACCAGAAAGUCUGUAAUCAUUCUAAGGGUA [U9C U39C A55G A86U U132C] as the variant, how does the self-cleavage read?
A: 1.05

Q: With GUUAACGGUCAUAGGCCAUGGAAGCUAGGAGCACCAUUUCGCUGCCAGUGAAGAAAUGAACAAAGAAAAUCUAGGCCAGGCAGGCAUCAAAAGAGACAGUCUUGCGCUCAACCAGAAAGUCUGUAAUCAUUUUAAGGGUA [A24G G73A A95G U97C] as the variant, how does the self-cleavage read?
A: 0.05

Q: Which self-cleavage does the source give for GUUAACGGUCAUAGGCCAUGGAAACUAGGAGCACCAUUUCGCCGCCAGUGAAGAAAUGAACAAAGAAAAUCUGGGCCGGGCGGGCAUCAAAAGAAAUAGUCUUGCGCUCAACCAGAAAGUCUGUAGUCAUUUUAAGGGUA [U43C A78G A82G A126G] here?
A: 0.09

Q: For GUUAACGGUCAUAGGCCAUGGAAACUAUGAGCACCAUUUCGCUGCCAGUGAAGAAAUGAGCAAAGAAAGUCUGGGCCAGGCAGGCAUCAAAAGAAAUAGUCUUGCGCUCAACCAGAAAGUCUGCAAUCAUUUUAAGGGUA [G28U A60G A69G U124C], which self-cleavage is on record?
A: 0.26

Q: With GCUAACGGUCGUAGGCCAUGGAAACUAGGAGCACCCUGUCGCUGCCAGUGAAGAAAUGAACAAAGAAAAUCUGGGCCAGGCAGGCAUCAAAAGAAAUAGUCUUGCGCUCAACCAGAAAGUCUGUAAUCAUUUUAAGGGUA [U2C A11G A36C U38G] as the variant, how does the self-cleavage read?
A: 1.65

Q: Which self-cleavage does the source give for GUUAGCGGUCAUAGGCCAUGGAAACUAGGAGCACCAUUUCGCUGCCAGUGAAGAAAUGAACAAAGAAGAUCUGGGCCAGGCAGGCACCAAAAGAAAUAGUCUUGCGCUCAACCAGAAAGUCUGUAAUCAUUUUAAGGGUA [A5G A68G U87C] here?
A: 0.95

Q: Which self-cleavage does the source give for GUUAACGGUCAUAGGCCAUGGAAACUAGGAGCAUCAUUUCGCUGCCAGUGAAGAAAUGAGCGAAGAAAAUCUGGGCCAGGCAGGCAUCAAAAGAAAUAGUCUUGCGCUCACCCAGAAAGUCUGUAAUCAUUUUAAGGGUA [C34U A60G A62G A111C] here?
A: 0.07

Q: With GUUAACGGUCAUAGGCCAUGGAAACUAGGAGCACCAUUUCGCUGCCAGUGAAGAAAUGAACAUGGAAAAUCUGGGCCAGGCAGGCACCAAAAGAAAUAGUCUUGCGCUCGACCAGAAAGUCUGUAAUCAUUUUAAGGGUA [A63U A64G U87C A110G] as the variant, how does the self-cleavage read?
A: 0.1

Q: Which self-cleavage does the source give for GUUAACGGUCAUAGGCCAUGGGGCCUAGGAGCACCAUUUCGCUGCCAGUGAAGAAAUGAACAAAGAAAAUCUGGGCCAGGCAGGCAUCAAAAGAAAUAGUCUUGCGCUCAACCAGAAAGUCUGUAAUCAUUUUAAGGGUG [A22G A23G A24C A140G] here?
A: 0.67

Q: Which self-cleavage does the source give for GUUAACGGUCAUAGGCCAUGGAAACUCGGAGCACCAUUACGCUGCCAGUGAAGAAAUGAACAAAGAAAAUCUGGGCCAGGCAGGCAUCAAAAGAAAUAGUCUUGCGCUCAACCAGAAAGUCUGUAAUCACUUUAAGGGUA [A27C U39A U130C] here?
A: 0.82

Q: Which self-cleavage does the source give for GUUAACGGUCAUAGGCCACGGAACCUAGGAGCACCACUUCGCUGCCAGUGAAGAAAUGAACAAAGAAAAUCUGGGCCAGGCAGGCAUCAAAAGAAAUAGUCUUGCGCUCAACCAGAAAGUCUGUAAUCAUUUUAAGGGUA [U19C A24C U37C] here?
A: 1.42

Q: Which self-cleavage does the source give for GUUAACGGUCAUAGGCCAUGGAAACUAGGAGCACCAUUUCGCUGCCAGCGAAGAAAUGAACAAAGAAAAUCUGGGCCAGGCAGGCAUCAAAAGAAAUAGUCUUGCGCUCAACCAGGAAGUCUGUAAUCAUCUUAAGGGUA [U49C A116G U131C] here?
A: 0.57

Q: With GUUAACGGUCAUGGGCCAUGGAAACUAGGAGCACCAUUUCGCUGCCAGUGGAGAUAUGAACAAAGAAAAUCAGGGCCAGGCAGGCAUCAAAAGAAAUAGUCUUGCGCUCAACCAGAAAGUCUGUAAUCAUUUUAAGGGUA [A13G A51G A55U U72A] as the variant, how does the self-cleavage read?
A: 0.57

Q: With GUUAACGGUCAUAGGCCAUGGAAACUAGGAGCACCAAUUCGCUGCCAGUGCAGAAAUGAACGAAGAAAAUCUGGGCCAGGCAGGCAUCAAAAGAAGUAGUCUUGCGCUCAACCAGAAAGUCUGUAAUCACUUUAAGGGUA [U37A A51C A62G A96G U130C] as the variant, how does the self-cleavage read?
A: 0.24

Q: With GUUAACGGUCAUAGGCCACGGAAACUGGGAGCACCAUUUCGCUGCCAGUGAAGAAAUGAACAAAGAAAAUCUGGGCCAGGCAGGCAUCAAAAGUAAUAGUCUUGCGCUCAACCAGAAAGUCUGUAGUCAUUUUAAGGGUA [U19C A27G A94U A126G] as the variant, how does the self-cleavage read?
A: 1.26

Q: With GUUAACGGUCAUAGGCCAAGGAAACUAGGAGCACCACUUCGCUGCCAGUGAAGAAAUGAACAAAGAAAAUCUGGGCCAGGCAGGCAUCAAAAGAAAUAGUCUUGAGCUCAACCAGAAAGUCUGUAAUCAUUUUAAGGGUA [U19A U37C C105A] as the variant, how does the self-cleavage read?
A: 0.03

Q: For GUUGACGGCCAUAGGCCAUGGAAACUAGGAGCACCAUUUCGCUGCCAGUGAAGAAGUGAACAAAGAAAAUCUGGGCCAGGCAGGCAUCAAAAGGAAUAGUCUUGCGCUCAACCAGAAAGUCUGUAAUCAUUUUAAGGGUA [A4G U9C A56G A94G], which self-cleavage is on record?
A: 1.48
